Measurements published in PubChem BioAssay AID360 (National Center for Advancing Translational Sciences (NCATS), 2006).
Among all 48,000 compounds or so, about 550 (1.1%) were called active. Roughly 4% stayed inconclusive and do not appear here. Rule as the data show it: active = potency below about 15 µM; inconclusive = mostly about 16 µM to 33 µM; inactive = weaker than that. This is one part of the list.

molecular target: Lysosomal acid glucosylceramidase (Homo sapiens) (UniProt P04062); assay: Glucocerebrosidase; details: purified enzyme, resorufin glucoside fluorescence (screen aimed at inhibitors), 20 min; series mostly up to 77 µM;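 also: the screen sought inhibitors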
Chain of UniProt P04062 (P04062 whole entry, looked up): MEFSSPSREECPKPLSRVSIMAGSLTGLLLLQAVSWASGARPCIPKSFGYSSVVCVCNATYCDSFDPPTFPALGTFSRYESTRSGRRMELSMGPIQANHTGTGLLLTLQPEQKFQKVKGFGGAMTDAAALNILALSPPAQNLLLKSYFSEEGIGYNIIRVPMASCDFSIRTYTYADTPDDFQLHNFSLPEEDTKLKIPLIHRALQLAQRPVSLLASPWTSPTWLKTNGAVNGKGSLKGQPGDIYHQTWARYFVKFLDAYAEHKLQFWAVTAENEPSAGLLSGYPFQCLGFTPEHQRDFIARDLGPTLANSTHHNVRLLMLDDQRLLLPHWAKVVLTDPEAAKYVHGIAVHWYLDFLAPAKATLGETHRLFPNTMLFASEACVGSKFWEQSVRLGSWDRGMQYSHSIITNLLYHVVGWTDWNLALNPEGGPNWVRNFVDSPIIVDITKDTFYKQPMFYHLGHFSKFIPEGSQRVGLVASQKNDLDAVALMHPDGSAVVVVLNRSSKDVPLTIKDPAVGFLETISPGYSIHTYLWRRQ
Summary of the method: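 Compounds titrated against 0.2 nM normal enzyme, 30 uM resorufin beta-D-glucopyranoside substrate, citrate/phosphate buffer with taurocholate and tween-20, pH 5.9. Reaction ran 20 min at room temperature; fluorescence (Ex 548/Em 600) gave AC50.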
Potency is read from the fitted curve at half-maximal effect.

Potency, active:
O=C(Nc1cccc(C(F)(F)F)c1)c1cc(-c2cccs2)on1 4.85 µM

Potency, inactive:
COc1cccc(NC(=O)Cn2c(-c3cncs3)nc3ccccc32)c1 > 76.9 µM, CCc1cc2c(CN3CCN(C)CC3)cc(=O)oc2cc1O, COc1ccc(NC(=O)CCN2CCCC(C)C2)cc1 (stereo not given) > 76.9 µM, COCCN(C(=O)c1cccc(OC)c1)c1nnc(-c2ccncc2)s1 > 76.9 µM, O=P(O)(O)C(O)C(F)(F)C(F)(F)C(F)(F)C(F)F (stereo not given) > 76.9 µM, COc1ccc(C(=O)C(CN2CCOCC2)c2ccccc2)cc1F (stereo not given) > 76.9 µM, CN(C)C(=O)N1CCC(C(=O)NCc2cccs2)CC1 > 76.9 µM, COCCNC(=O)CSc1nc2c(n1-c1ccccc1)CCCC2 > 76.9 µM, Cc1nnc(Oc2ccccc2F)c2ccccc12 > 76.9 µM, O=C(c1cccs1)c1coc2ccc(O)c(CN3CCOCC3)c12 > 76.9 µM, O=C(CCS(=O)(=O)c1cccc2nonc12)NC1CCCCCC1 > 76.9 µM, S=c1[nH]nc(-c2ccncc2)n1CC1CCCO1 (stereo not given) > 76.9 µM, Cc1ccc(NC(=O)c2ccco2)c(NC(=O)c2cccs2)c1 > 76.9 µM, CCCS(=O)(=O)NCc1cn2cccc(C)c2n1 > 76.9 µM, CC(=C1C(=O)c2ccccc2C1=O)N1CCN(Cc2ccccc2)CC1 > 76.9 µM, O=C(Nc1cccc(F)c1)c1c(F)c(F)c(F)c(F)c1F > 76.9 µM, C=CCn1c(NCCO)nc2c1c(=O)n(C)c(=O)n2C > 76.9 µM, CCc1c(C)nc(SC)n(CC#N)c1=O > 76.9 µM, O=C(c1cc(-c2ccc3c(c2)OCO3)on1)N1CCOCC1 > 76.9 µM, c1ccc(-c2n[nH]c(-c3ccccn3)n2)nc1 > 76.9 µM, O=C1c2ccccc2C(=O)N1CCCCSc1nnc(-c2ccc(OC(F)F)cc2)o1 > 76.9 µM, Cc1nc(SCC(=O)c2ccccc2)n[nH]1 > 76.9 µM, CCOC(=O)c1ccc(Nc2c(CC)c(C)nc3ncnn23)cc1 > 76.9 µM, CCOc1cc(NC(=O)c2ccccn2)c(OCC)cc1NC(=O)CC(C)C > 76.9 µM, CCn1c2ccccc2c2nc3cc(OC)c(OC)cc3nc21 > 76.9 µM, CC1(C)C2CCC13CS(=O)(=O)N[C@@H]3C2 (stereo not given in full) > 76.9 µM, Cn1cccc1C(=O)NS(=O)(=O)c1ccccc1Cl > 76.9 µM, CCN(CC)S(=O)(=O)c1ccc2oc(C(=O)N3CCCCCC3)c(C)c2c1 > 76.9 µM, CC(C)CC1N=C2c3ccccc3N=C(SCc3cc(=O)n4ccccc4n3)N2C1=O (stereo not given) > 76.9 µM, Cn1nc(C(=O)NC2CCCCCC2)ccc1=O > 76.9 µM, COc1cc(OC)c(C2N(c3ccccn3)C(=O)C3CCCN32)cc1OC (stereo not given) > 76.9 µM, CCn1c(=O)c(C(=O)Nc2ccccc2S(N)(=O)=O)c(O)c2ccccc21 > 76.9 µM, CSc1nc(N2CCN(CCO)CC2)c2sc3nc(-c4ccco4)c4c(c3c2n1)CCC4 > 76.9 µM, CCCNc1ncnc2sc(C)c(C)c12 > 76.9 µM, COc1ccc(OC)c(NC(=O)CN2C(=O)C3(OCCCO3)c3ccccc32)c1 > 76.9 µM, c1ccc(Cn2c(SCCN3CCOCC3)nnc2-c2cccnc2)cc1 > 76.9 µM, NC(CSC12CC3CC(CC(C3)C1)C2)C(=O)O (stereo not given) > 76.9 µM, COc1cc(C(=O)N(Cc2cc3cc(C)ccc3[nH]c2=O)CC2CCCO2)cc(OC)c1OC (stereo not given) > 76.9 µM, CCOC(=O)CCCNC(=O)COC(=O)c1cc(C)cc(C)c1 > 76.9 µM, Cn1c(=O)cc(SCC(=O)N2CCCC2)c2cc(Cl)ccc21 > 76.9 µM, COC(=O)c1ccccc1NC(=O)C1CCCN(S(C)(=O)=O)C1 (stereo not given) > 76.9 µM, COc1ccc(C(=O)CN2C(=O)c3ccccc3C2=O)c(OC)c1C, O=C(COC(=O)c1cnccn1)c1ccc2c(c1)CCCC2 > 76.9 µM, Cc1ccc(C)c(-n2c(CNC(=O)c3ccco3)nnc2SCC(=O)N2CCc3ccccc32)c1 > 76.9 µM, O=S1(=O)CCN2C(c3ccco3)=CSC2=N1 > 76.9 µM, COc1cccc(-c2nnn(CCC(=O)O)n2)c1 > 76.9 µM, Cc1ccc2nc(-c3cccc(S(=O)(=O)N(C)C)c3)cn2c1 > 76.9 µM, CC(C)c1c(O)nc(SCC(=O)Nc2ccc3c(c2)CCC3)[nH]c1=O, COCCn1c(C)cc(C(=O)COC(=O)c2ccc(N3CCCC3=O)cc2)c1C > 76.9 µM, CC1(C)CC(=O)C=C(Nc2ccc(S(N)(=O)=O)cc2)C1 > 76.9 µM, COc1cc(NC(=O)CCN2CCN(c3ccccc3F)CC2)cc(OC)c1 > 76.9 µM, CC(C)n1c(SCC(N)=O)nc2c1c(=O)[nH]c(=O)n2C > 76.9 µM, N#Cc1c(NC(=O)CN2CCCCC2)sc2c1CCC2 > 76.9 µM, COc1ccc(-c2nnc(SCC(=O)NC(=O)NCc3ccco3)o2)cc1 > 76.9 µM, COc1ccc(OC)c(S(=O)(=O)N2CCC(C(=O)NCc3ccccc3OC)CC2)c1 > 76.9 µM, CCOc1cc(C2C(C(=O)c3ccco3)=C(O)C(=O)N2CCc2ccccc2)ccc1O (stereo not given) > 76.9 µM, CC(c1ccccc1)N1C(=O)c2ccc(C(=O)NCc3ccco3)cc2C1=O (stereo not given) > 76.9 µM, CCN=C1SC(CC(=O)NC2CCCCC2)C(=O)N1CC (stereo not given) > 76.9 µM, CCCS(=O)(=O)N1CCCC(C(=O)NCCc2ccc(OC)c(OC)c2)C1 (stereo not given) > 76.9 µM
